# Some entries of the source have several records that differ or are many. The other results are left out here. The source may hold further records. Values that stand side by side appear to be repeats (runs, samples, wells or individuals); one of them may be the mean.
# Molecular target: Pex5eTPR, truncated Pex5 with the extended TPR domain and a single Wxxx(F/Y) motif, wild type (Trypanosoma cruzi) (UniProt Q4DPQ9)
# Assay: ITC; Pex14NTD in the syringe injected into Pex5eTPR in the cell, without PTS1 peptide; 20 mM sodium phosphate, 100 mM NaCl, pH 6.5, 25 °C; independent model; single titrations (replicates), each fitted by itself
substance,measurement,value
"N-terminal domain of Pex14 (Pex14NTD), wild type (domain or fragment)",Ka,"2.8e+07 1/M, 3.4e+07 1/M, 2.9e+07 1/M, 2.2e+07 1/M, 3.2e+07 1/M [columns of one line]"
same,Kd,"36.1, 29.1, 34.2, 46, 30.9 nM [columns of one line]"
same,stoichiometry N,"0.726, 0.623, 0.646, 0.653, 0.639 [columns of one line]"

# — publication PMC12738837, “Structure of Trypanosoma peroxisomal import complex unveils conformational heterogeneity” (Nature Communications, 2025)
